Test results as given in PubChem BioAssay AID588855 (National Center for Advancing Translational Sciences (NCATS), 2011).
Screen size: about 410,000 compounds; about 5,000 (1.2%) were called active. The shares of active, inactive and inconclusive entries below differ from those in the screen. Calls come from the whole dose curve; as a rule, active = well fitted inhibition curve with a large enough effect; inconclusive = small, poorly fitted or top-dose-only effect; inactive = no such curve, though single readings can be large or run the other way. Potencies beside an inconclusive call are fits to weak or partial responses and may not hold up.

Assay: qHTS for Inhibitors of TGF-b; note: nearly all actives have a fitted effect of over 65% in size
Details: HepG2 CAGA-GFP TGF-b/SMAD3 reporter, GFP fluorescence, 18 h, TGF-beta stimulated, 500 pg/mL final; series mostly up to 46.1 µM
Summary of the method: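 Read-out: total well GFP (ex488/em500-530) summed from mean per-cell fluorescence. Cells: HEPG2 CAGA-GFP, 1% FBS DMEM, 18 h at 37 degrees C with 500 pg/mL final TGF-beta. Unstimulated wells served as the full-inhibition control; stimulated DMSO wells = 0%.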
Potency is the fitted concentration of half-maximal effect; tags give direction and shape of the fitted curve.

Row | Structure (SMILES) | Potency
1 | COc1ccc(OC)c(CN2CCN(c3ccc(S(=O)(=O)N4CCCC4)cn3)CC2)c1 | inconclusive: 14.1 µM [inhibitor, partial curve, poor fit]
2 | O=C1c2ccccc2NC(c2ccncc2)N1c1ccccn1 (stereo unspecified) | inconclusive: 6.31 µM [inhibitor, single point]
3 | CC(C)NC(=S)NC(c1ccccc1)(c1ccccc1)c1ccccc1 | inconclusive: 35.5 µM [inhibitor, single point]
4 | CCc1nc2nc(C)cc(Nc3cc(C)ccc3C)n2n1 | inactive
5 | Cc1c(C(=O)NCc2cccc(C(F)(F)F)c2)sc(=O)n1Cc1ccccc1F | inconclusive: 35.5 µM [inhibitor, single point]
6 | COC(=O)COc1ccc(NS(=O)(=O)c2cccc([N+](=O)[O-])c2)cc1 | inconclusive: 0.631 µM [inhibitor, full curve, poor fit]
7 | CCOC(=O)c1c(S(=O)(=O)N2CCC(C(=O)NCc3ccccc3Cl)CC2)c(C)n(C)c1C | inconclusive: 6.31 µM [inhibitor, single point]
8 | O=S(=O)(c1ccccc1F)N1CCN(CCOc2ccccc2)CC1 | inactive
9 | CC1CC(C)CN(C(=O)c2cccc3c2-c2ccccc2C3=O)C1 (stereo unspecified) | inconclusive: 11.2 µM [inhibitor, partial curve, poor fit]
10 | COc1cccc(CNC(=O)c2ccc3c(c2)sc2nc(-c4cccc(OC)c4)cn23)c1 | inconclusive: 2.82 µM [inhibitor, partial curve, poor fit]
11 | C=CC(=O)Nc1cccc(Oc2cc(Cl)nc3[nH]ccc23)c1 | inconclusive: 11.2 µM [inhibitor, partial curve, poor fit]
12 | CCOC(=O)C1C(=O)Nc2nc3ccccc3n2C1C(C)C (stereo unspecified) | inconclusive: 5.01 µM [inhibitor, partial curve, poor fit]
13 | CCCC1=Nc2cc(C(=O)NC3CCCCC3)ccc2Sc2ccc(C)cc21 | inconclusive: 1.41 µM [inhibitor, full curve]
14 | CC(C)CCNC(=O)C(c1ccc(O)cc1)N(C(=O)C1COc2ccccc2O1)c1cccc(O)c1 (stereo unspecified) | inconclusive: 35.5 µM [inhibitor, single point]
15 | O=[N+]([O-])c1cc(/C=N/Nc2nc3ccccc3[nH]2)c(O)cc1O | inconclusive: 5.62 µM [inhibitor, full curve]
16 | COc1cccc(OC)c1-c1cc(CCCc2cc(-c3c(OC)cccc3OC)nc3ccccc23)c2ccccc2n1 | inconclusive: 35.5 µM [inhibitor, single point]
17 | COc1ccc(N2CCN(C(=O)c3cccc(Br)c3)CC2)c([N+](=O)[O-])c1 | inconclusive: 14.1 µM [inhibitor, single point]
18 | Cc1ccc(C(=O)N2CCC(N3CCC(C(=O)N4CCOCC4)CC3)CC2)cc1 | inactive
19 | Cc1ccc2nc(Nc3nc(-c4ccccc4)cc(=O)[nH]3)nc(C)c2c1 | inconclusive: 17.8 µM [inhibitor, partial curve, poor fit]
20 | COc1ccc(C(=O)N(C)Cc2cnn(Cc3ccccc3)c2)cc1S(=O)(=O)N1CCOCC1 | inconclusive: 22.4 µM [inhibitor, single point]
21 | COc1cccc(/C=N/NC(=O)CNC(=O)COc2ccccc2)c1O | inconclusive: 8.91 µM [inhibitor, partial curve, poor fit]

Row | Structure (SMILES) | Potency
22 | CCn1c(C)[n+](CCOC(C)=O)c2cc(Cl)c(Cl)cc21 | inconclusive: 3.16 µM [inhibitor, partial curve, poor fit]
23 | NC(COCc1ccccc1)c1csc(Nc2ccc(C(=O)NCCO)cc2)n1 (stereo unspecified) | inactive
24 | O=C(NN=C1CCC(=NNC(=O)c2ccccn2)CC1)c1ccccn1 | inactive
25 | CCOc1ccc(NC(=O)c2c(NCc3cc(OC)c(OC)cc3OC)sc3c2CCCC3)cc1 | inconclusive: 0.447 µM [inhibitor, full curve, poor fit]
26 | Nc1c(Cl)ncnc1N/N=C/c1ccccn1 | active: 3.98 µM
27 | COc1ccccc1NC(=O)/C=C/C(N)=O | active: 12.6 µM
28 | CCC(=O)N1c2ccccc2CC1C(=O)NCCN1CCN(c2cc(Cl)ccc2C)CC1 (stereo unspecified) | inactive
29 | Cc1ccc(/S(C)=N/S(=O)(=O)c2ccc(C)cc2)cc1 (stereo unspecified) | inconclusive: 0.794 µM [inhibitor, partial curve, poor fit]
30 | COc1ccc(OC)c(/C=N/NC(=O)CCCC(=O)Nc2cccc(Br)c2)c1 | inactive
31 | Cc1csc2nc(NC(=O)c3ccccc3)sc(=O)c12 | inactive
32 | Cc1c(-c2ccccc2)[n+](=O)c(-c2ccco2)c(C)n1[O-] | inconclusive: 1.41 µM [inhibitor, full curve, poor fit]
33 | O=c1cc(CSc2nnnn2-c2ccccc2)nc(Nc2ccc(F)cc2)[nH]1 | inconclusive: 1.26 µM [inhibitor, full curve, poor fit]
34 | CC(=O)c1ccc(N2CCC(c3cc(-c4ccc(Cl)cc4Cl)n[nH]3)CC2)c([N+](=O)[O-])c1 | inconclusive: 35.5 µM [inhibitor, single point]
35 | CN(C)c1ccc(/C=C2\SC(=O)N(CCc3nnc(N)s3)C2=O)cc1 | inactive
36 | Cc1cc(NC(=O)NC(=O)c2ccccc2NC(=O)CN)ccc1Oc1ncc(Br)cn1 | inconclusive: 8.91 µM [inhibitor, partial curve, poor fit]
37 | CCN(C(=O)C(NS(=O)(=O)c1ccc(Br)s1)c1ccccc1)c1ccc(C)c(C)c1 (stereo unspecified) | inconclusive: 35.5 µM [inhibitor, single point]
38 | COc1ccc(C2=NOC(CNC(N)=S)C2)cc1 (stereo unspecified) | inactive
39 | O=C(Nc1ccc(Cl)c(Cl)c1)Nc1ccccc1O | inconclusive: 17.8 µM [inhibitor, single point]
40 | CCOC(=O)N1CCN(C(=O)CSCc2nc(-c3ccccc3F)oc2C)CC1 | inconclusive: 35.5 µM [inhibitor, single point]
41 | Cc1cc(C(=O)N2CCC(Cc3ccccc3)CC2)ccc1[N+](=O)[O-] | inconclusive: 35.5 µM [inhibitor, single point]
